These are yes or no findings as the source states them, for the method shown. Binding seen in cells or lysates may run through a third protein. Some results given as binding are weak or reduced against the parent protein; the word gives no strength.
How the values were obtained:
[1] = biological target: phosphorylated Smad1 (human (endogenous in IMR32 and BE(2)-C)) (UniProt Q15797); experiment: co-IP; IMR32 and BE(2)-C cells transfected with Smad4, D351H or R361H; western blot for p-Smad1 and p-Smad2
[2] = biological target: lymphoid enhancer binding factor 1 (LEF1), endogenous (human (endogenous in NB cell lines)) (UniProt Q9UJU2); experiment: co-IP; endogenous proteins of cultured NB cells; antibodies specific for Smad4 and LEF1, protein A-Sepharose beads, western blot

Chains of the proteins cited; added tags and fusions are not shown. Lines headed by an entry give the natural chain unless they say otherwise; changes in a name come on top.
UniProt Q15797: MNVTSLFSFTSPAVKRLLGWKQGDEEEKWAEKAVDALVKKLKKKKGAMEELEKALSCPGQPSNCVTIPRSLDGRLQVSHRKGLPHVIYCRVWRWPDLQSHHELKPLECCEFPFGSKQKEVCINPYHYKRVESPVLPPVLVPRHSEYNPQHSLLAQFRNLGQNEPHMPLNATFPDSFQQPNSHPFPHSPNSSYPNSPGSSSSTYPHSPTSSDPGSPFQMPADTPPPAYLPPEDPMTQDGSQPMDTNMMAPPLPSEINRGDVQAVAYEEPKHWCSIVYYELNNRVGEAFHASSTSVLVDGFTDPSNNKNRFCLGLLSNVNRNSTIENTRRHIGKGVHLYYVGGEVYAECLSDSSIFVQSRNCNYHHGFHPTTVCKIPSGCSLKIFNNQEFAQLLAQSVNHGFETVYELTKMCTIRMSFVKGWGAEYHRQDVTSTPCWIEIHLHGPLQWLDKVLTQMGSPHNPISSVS
UniProt Q9UJU2: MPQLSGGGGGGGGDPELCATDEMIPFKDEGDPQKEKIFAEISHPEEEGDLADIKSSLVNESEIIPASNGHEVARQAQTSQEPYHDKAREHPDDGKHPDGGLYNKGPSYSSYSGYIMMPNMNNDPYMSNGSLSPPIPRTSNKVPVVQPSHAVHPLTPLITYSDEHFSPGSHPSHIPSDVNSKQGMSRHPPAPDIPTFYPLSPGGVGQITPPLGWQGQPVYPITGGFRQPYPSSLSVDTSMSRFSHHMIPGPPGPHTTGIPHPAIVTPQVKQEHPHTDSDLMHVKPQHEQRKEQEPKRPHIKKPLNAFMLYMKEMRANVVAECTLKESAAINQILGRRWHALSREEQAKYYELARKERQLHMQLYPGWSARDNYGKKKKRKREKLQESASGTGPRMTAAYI
UniProt Q13485: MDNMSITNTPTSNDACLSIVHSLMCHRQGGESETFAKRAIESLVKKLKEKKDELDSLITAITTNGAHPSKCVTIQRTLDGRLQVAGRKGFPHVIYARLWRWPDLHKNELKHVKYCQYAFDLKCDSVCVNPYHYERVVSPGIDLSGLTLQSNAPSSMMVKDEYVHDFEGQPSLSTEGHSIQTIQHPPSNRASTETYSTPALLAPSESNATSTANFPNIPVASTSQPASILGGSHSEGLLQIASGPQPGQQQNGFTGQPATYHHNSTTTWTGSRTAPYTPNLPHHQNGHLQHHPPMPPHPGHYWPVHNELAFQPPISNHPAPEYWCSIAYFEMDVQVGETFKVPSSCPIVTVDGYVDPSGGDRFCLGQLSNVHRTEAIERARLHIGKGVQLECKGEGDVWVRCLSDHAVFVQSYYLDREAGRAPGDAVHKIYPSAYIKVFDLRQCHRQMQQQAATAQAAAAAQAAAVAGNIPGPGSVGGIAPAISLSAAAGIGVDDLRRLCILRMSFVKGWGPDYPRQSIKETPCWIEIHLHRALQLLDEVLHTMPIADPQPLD

| Substance | binding [1] | binding [2] |
| --- | --- | --- |
| Smad4 R361H (from UniProt Q13485 1-552) | no binding | – |
| Smad4 D351H (from UniProt Q13485 1-552) | no binding | – |
| Smad4, transfected (from UniProt Q13485 1-552) | binds | – |
| SMAD family member 4 (Smad4), endogenous (from UniProt Q13485 1-552) | – | binds |

Source: PMC5011643
